First the molecules themselves.
B1: SC03-002 (scFv)
scFv: SMAEVQLVESGGGLVKPGGSLRLSCAASGFTFSGYSMSWVRQAPGKGLEWVGRTRNKANSYTTEYAASVKGRFTISRDDSKNSLYLQMNSLKTEDTAVYYCARYYSRSLKAFDYWGQGTLVTVLEGTGGSGGTGSGTGTSELTQSPSSLSASVGDRVTIT[about 80 residues left out here]FGQGTKVEIKRAAA
B2: SC03-003 (scFv)
scFv: SMAEVQLVESGGGLVQPGGSLRLSCAASGFTFSSYPMNWVRQAPGKGLEWVSAISGSGGSTYYADSVKGRFTISRDNSKNTLYLQMNSLRAEDTAVYYCARRSYFRRFDYWGQGTLVTVLEGTGGSGGTGSGTGTSELTQSPSSLSASVGDRVTIT[about 80 residues left out here]FGQGTKVEIKRAAA
B3: SC03-008 (scFv)
scFv: SMAEVQLVESGGGVVQPGRSLRLSCAASGFTFSSYPMNWVRQAPGKGLEWVSAISGSGGSTYYADSVKGRFTISRDNSKNTLYLQMNSLRAEDTAVYYCARRVRPRRFDYWGQGTLVTVLEGTGGSGGTGSGTGTSELTQSPSSLSASVGDRVTIT[about 80 residues left out here]FGQGTKVEIKRAAA
B4: SC03-005 (scFv)
scFv: SMAEVQLVESGGGLIQPGGSLRLSCAASGFTFSGYTMSWVRQAPGQGLEWVSSISGGSTYYADSRKGRFTISRDNSKNTLYLQMNNLRAEDTAVYYCAKGGGRPYNPFDYWGQGTLVTVLEGTGGSGGTGSGTGTSELTQSPSSLSASVGDRVTIT[about 80 residues left out here]FGQGTKVEIKRAAA
B5: SC03-001 (scFv)
scFv: SMAEVQLVESGGGLVKPGGSLRLSCAASGFTFSGYSMNWVRQAPGKGLEWVSSISGGSTYYADSRKGRFTISRDNSKNTLYLQMNNLRAEDTAVYYCARHRFRHVFDYWGQGTLVTVLEGTGGSGGTGSGTGTSELTQSPSSLSASVGDRVTIT[about 80 residues left out here]FGQGTKVEIKRAAA
B6: SC03-013 (scFv)
scFv: AMAEVQLVESGGGLVQPGGSLRLSCAASGFTFSDHYMDWVRQAPGKGLEWVGRTRNKANSYTTEYAASVKGRFTISRDDSKNSLYLQMNSLKTEDTAVYYCAKGLTPLYFDYWGQGTLVTVSSGGGGSGGGGSGGGGSEIELTQSPSSLSASVGDRVTIT[about 80 residues left out here]FGQGTKVEIKRAAA

This test deals with SARS-CoV preparation (Frankfurt 1 strain) (SARS-CoV strain Frankfurt 1).
Consider B1, for which the OD492nm was 0.841 OD492nm. Then B2, with 0.192 OD492nm.

In the case of B3, the OD492nm was found to be 0.358 OD492nm.

Turning to B4, the OD492nm amounted to 0.869 OD492nm.

B5: the OD492nm is 0.979 OD492nm. Then B6, with 0.979 OD492nm.

Source of the values: patent publication US20070128217A1.
